# The supplement of paper PMC10037445
# Over roughly 2,900 compounds, “NF-kB SEAP reporter activity, fold change vs agonist alone” has its median near 0.99; the highest 2% begin near 2.6. The list shows a part of the results.
# How the values were obtained:
# RAW-Dual [1] = assay: NF-kB SEAP reporter activity, fold change vs agonist alone; higher = enhanced NF-kB activity; details: library stock concentration (final ~1000-fold dilution): 10 mM
# How it was run: (§1)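 Reporter activity is given as fold change relative to agonist-alone wells. To measure it, 50 nL of library stock was pin-tooled onto RAW-Dual macrophages (50,000 cells/well, DMEM, 384-well plates), a PRR agonist followed 1 h later, and cells stayed at 37 °C, 5% CO2. Twenty hours on, supernatant was assayed for IRF (QuantiLuc luminescence) and NF-κB (QuantiBlue, 620 nm absorbance), and wells under 70% of agonist-control IncuCyte confluency in both mask sets were marked cytotoxic.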
# RAW-Dual [2] = assay: NF-kB SEAP reporter activity, fold change vs agonist alone; cytotoxicity flag (confluency mask): not cytotoxic; higher = enhanced NF-kB activity
# How it was run: as §1
# RAW-Dual [3] = assay: NF-kB SEAP reporter activity, fold change vs agonist alone; cytotoxicity flag (confluency mask): cytotoxic (confluency <70% of control); higher = enhanced NF-kB activity
# How it was run: as §1
# [4] = cytotoxicity flag (confluency mask): not cytotoxic, agonist: Imiquimod (TLR7) […]
# [5] = cytotoxicity flag (confluency mask): not cytotoxic, agonist: MPLA (TLR4) […]
# [6] = agonist: ODN 1826 (TLR9) 0.5 ug/mL
# [7] = agonist: Pam2CSK4 (TLR2/6) 0.1 ug/mL
# [8] = agonist: Pam3CSK4 (TLR2/1) 0.1 ug/mL
compound,measurement,setting,value
C=CC1CN2CCC3(C(=O)Nc4ccccc43)C2CC1/C(=C\OC)C(=O)OC (stereo not drawn),NF-kB SEAP reporter activity,RAW-Dual [1]; [4],0.91
same,NF-kB SEAP reporter activity,RAW-Dual [1]; [5],1.1
c1ccc2c(c1)[I+]c1ccccc1-2,NF-kB SEAP reporter activity,"RAW-Dual [1]; cytotoxicity flag (confluency mask): cytotoxic (confluency <70% of control), agonist: Imiquimod (TLR7) […]",0.708
same,NF-kB SEAP reporter activity,"RAW-Dual [1]; cytotoxicity flag (confluency mask): cytotoxic (confluency <70% of control), agonist: MPLA (TLR4) […]",1.14
same,NF-kB SEAP reporter activity,RAW-Dual [1]; [4],0.411
same,NF-kB SEAP reporter activity,RAW-Dual [1]; [5],1.16
c1ccc2c(c1)[I+]c1ccccc1-2 (library stock concentration (final ~1000-fold dilution): 10 mM),NF-kB SEAP reporter activity,RAW-Dual [2]; agonist: LPS (TLR4) 0.1 ug/mL,0.512
same,NF-kB SEAP reporter activity,RAW-Dual [2]; [6],0.404
same,NF-kB SEAP reporter activity,RAW-Dual [2]; [7],0.193
same,NF-kB SEAP reporter activity,RAW-Dual [2]; [8],0.278
same,NF-kB SEAP reporter activity,RAW-Dual [3]; agonist: LPS (TLR4) 0.1 ug/mL,0.328
same,NF-kB SEAP reporter activity,RAW-Dual [3]; [6],0.428
same,NF-kB SEAP reporter activity,RAW-Dual [3]; [7],0.176
same,NF-kB SEAP reporter activity,RAW-Dual [3]; [8],0.338
CCC1=CC2CN3CCc4c([nH]c5ccccc45)C(C(=O)OC)(C2)C13 (stereo not drawn),NF-kB SEAP reporter activity,RAW-Dual [1]; [4],1.03
same,NF-kB SEAP reporter activity,RAW-Dual [1]; [5],1.11
CCC1=CC2CN3CCc4c([nH]c5ccccc45)C(C(=O)OC)(C2)C13 (stereo not drawn) (library stock concentration (final ~1000-fold dilution): 10 mM),NF-kB SEAP reporter activity,RAW-Dual [2]; agonist: LPS (TLR4) 0.1 ug/mL,1.04
same,NF-kB SEAP reporter activity,RAW-Dual [2]; [6],1.06
same,NF-kB SEAP reporter activity,RAW-Dual [2]; [7],0.935
same,NF-kB SEAP reporter activity,RAW-Dual [2]; [8],1.03
CCC1(c2ccc(N)cc2)CCC(=O)NC1=O (stereo not drawn) (library stock concentration (final ~1000-fold dilution): 10 mM),NF-kB SEAP reporter activity,RAW-Dual [2]; agonist: LPS (TLR4) 0.1 ug/mL,1.04
same,NF-kB SEAP reporter activity,RAW-Dual [2]; [6],1.03
same,NF-kB SEAP reporter activity,RAW-Dual [2]; [7],1.02
same,NF-kB SEAP reporter activity,RAW-Dual [2]; [8],1.1
CCC1(c2ccc(N)cc2)CCC(=O)NC1=O (stereo not drawn),NF-kB SEAP reporter activity,RAW-Dual [1]; [4],0.947
same,NF-kB SEAP reporter activity,RAW-Dual [1]; [5],1.03
Cl.N=C(N)NN,NF-kB SEAP reporter activity,RAW-Dual [1]; [4],1.1
same,NF-kB SEAP reporter activity,RAW-Dual [1]; [5],1.33
Cl.N=C(N)NN (library stock concentration (final ~1000-fold dilution): 10 mM),NF-kB SEAP reporter activity,RAW-Dual [2]; agonist: LPS (TLR4) 0.1 ug/mL,1.04
same,NF-kB SEAP reporter activity,RAW-Dual [2]; [6],1.23
same,NF-kB SEAP reporter activity,RAW-Dual [2]; [7],0.999
same,NF-kB SEAP reporter activity,RAW-Dual [2]; [8],0.942
CCC12C=CCN3CCC4(c5ccc(OC)cc5N(C)C4C(O)(C(=O)OC)C1OC(C)=O)C32 (stereo not drawn) (library stock concentration (final ~1000-fold dilution): 10 mM),NF-kB SEAP reporter activity,RAW-Dual [2]; agonist: LPS (TLR4) 0.1 ug/mL,1.1
same,NF-kB SEAP reporter activity,RAW-Dual [2]; [6],0.985
same,NF-kB SEAP reporter activity,RAW-Dual [2]; [7],0.859
same,NF-kB SEAP reporter activity,RAW-Dual [2]; [8],1.02
CCC12C=CCN3CCC4(c5ccc(OC)cc5N(C)C4C(O)(C(=O)OC)C1OC(C)=O)C32 (stereo not drawn),NF-kB SEAP reporter activity,RAW-Dual [1]; [4],0.713
same,NF-kB SEAP reporter activity,RAW-Dual [1]; [5],0.992
Br.NCCc1cc(O)c(O)cc1O,NF-kB SEAP reporter activity,RAW-Dual [1]; [5],1.08
Br.NCCc1cc(O)c(O)cc1O (library stock concentration (final ~1000-fold dilution): 10 mM),NF-kB SEAP reporter activity,RAW-Dual [2]; agonist: LPS (TLR4) 0.1 ug/mL,1.94
same,NF-kB SEAP reporter activity,RAW-Dual [2]; [6],0.853
same,NF-kB SEAP reporter activity,RAW-Dual [2]; [7],1.06
same,NF-kB SEAP reporter activity,RAW-Dual [2]; [8],0.83
